Key:
[1] = molecular target: T1, human CD40 (analyte in SPR) (human, UniProt P25942 partial chain); assay: affinity in benchmark table; method not restated (SPR ProteOn of Example 3 presumed)
T1 construct: also called huCD40

[2] = molecular target: T2, human CD40 on cells (human tonsillar B cells, human dendritic cells, HEK-Blue CD40L cells) (human, UniProt P25942 21-277); assay: cell-based or functional assay
[3] = molecular target: T2, human CD40 on cells (human tonsillar B …); assay: cell-based or functional assay; remark: listed apart in the source

Kd [1]: 0.87 nM
IC50, B cell proliferation, membrane CD40L, human B-cells [2]: 0.393 nM
IC50, B cell proliferation, soluble CD40L, human B-cells [2]: 0.288 nM
IC50, human DC IL-12p40 production, membrane CD40L [3]: 0.822 nM
IC50, human DC IL-12p40 production, soluble CD40L [3]: 0.285 nM
B1: BMS-986090 (Fc fusion)
heavy: EVQLLESGGGLVQPGGSLRLSCAASGFTFRDYEMWWVRQAPGKGLERVSAINPQGTRTYYADSVKGRFTISRDNSKNTLYLQMNSLRAEDTAVYYCAKLPFRFSDRGQGTLVTVSSAST[omitted - human IgG4 Fc with S228P (EU numbers)]
notes: Benchmark
